Results reported in patent US20240076343A1 (CEPHALON, published 2024).

T1: intermediate-affinity hIL-2 receptor (IL-2Rβγ) on TF1+IL-2Rβ cells (human, UniProt P14784 27-551; P31785 23-369)
T1 sequence 1: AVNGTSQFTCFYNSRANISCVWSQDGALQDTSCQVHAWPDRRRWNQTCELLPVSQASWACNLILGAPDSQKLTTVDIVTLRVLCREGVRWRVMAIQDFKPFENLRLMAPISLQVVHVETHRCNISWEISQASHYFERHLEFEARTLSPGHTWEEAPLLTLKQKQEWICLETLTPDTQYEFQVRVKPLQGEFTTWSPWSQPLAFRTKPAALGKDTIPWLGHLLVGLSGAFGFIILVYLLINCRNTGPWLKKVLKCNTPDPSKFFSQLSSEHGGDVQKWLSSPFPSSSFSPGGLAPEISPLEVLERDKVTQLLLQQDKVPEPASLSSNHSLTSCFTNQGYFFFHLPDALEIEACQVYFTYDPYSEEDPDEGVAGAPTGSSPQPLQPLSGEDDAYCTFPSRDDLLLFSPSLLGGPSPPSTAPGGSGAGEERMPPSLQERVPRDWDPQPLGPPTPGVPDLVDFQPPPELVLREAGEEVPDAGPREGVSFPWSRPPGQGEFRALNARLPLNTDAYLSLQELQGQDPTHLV
T1 sequence 2: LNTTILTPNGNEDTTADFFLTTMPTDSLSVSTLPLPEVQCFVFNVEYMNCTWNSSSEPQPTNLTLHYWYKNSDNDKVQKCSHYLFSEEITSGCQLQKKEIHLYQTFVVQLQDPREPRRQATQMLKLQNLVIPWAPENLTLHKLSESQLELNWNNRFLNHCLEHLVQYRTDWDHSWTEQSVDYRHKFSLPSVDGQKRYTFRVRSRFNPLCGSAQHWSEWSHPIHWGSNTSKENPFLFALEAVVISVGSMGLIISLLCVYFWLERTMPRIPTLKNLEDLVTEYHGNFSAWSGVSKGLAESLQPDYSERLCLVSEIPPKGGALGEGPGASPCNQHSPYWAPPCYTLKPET


Key:
[1] = biological target: T1, intermediate-affinity hIL-2 receptor …; assay: cell-based or functional assay
[2] = biological target: T1, intermediate-affinity hIL-2 receptor …; assay: cell-based or functional assay; remark: listed apart in the source

Binder	Fold decrease from rhIL-2 (TF1 + IL-2Rβ + hPD-1) [1] [fold]	Agonistic Activity (TF1 + IL-2Rβ) [2] [%]	Fold change from rhIL-2 (TF1 + IL-2Rβ) [2] [fold]
C51E6-5-hIgG4-L6-hIL-2 (D20A/R38E) (other) heavy: QVQLVQSGSELKKPGASVKVSCKASGYSLYGTSMHWVRQAPGQGLEWMGYISPFTGRATYAQGFTGRFVFSLDTSVSTAYLQISSLKAEDTAVYYCARDYDYRYYYAMDYWGQGTTVTVSSASTKGPSVFPLAPCSRSTSESTAALGCLVKDYFPEPVTVSWNSGALTSGVHTFPAVLQSSGLYSLSSVVTVPSSSLGTKTYTCNVDHKPSNTKVDKRV[not shown - about 350 residues with a human IgG4 Fc and changes] light: EIVLTQSPDFQSVTPKEKVTITCTASESVPPQFLHWYQQKPDQSPKLLIYASRERASGVPSRFSGSGSGTDFTLTINSLEAEDAATYYCHQFHRSPLTFGGGTKLEIKRTVAAPSVFIFPPSDEQLKSGTASVVCLLNNFYPREAKVQWKVDNALQSGNSQESVTEQDSKDSTYSLSSTLTLSKADYEKHKVYACEVTHQGLSSPVTKSFNRGEC	~1	80	> 10000
2A3.H7-hIgG4-df-hIL-2 (D20A/R38E) (other) heavy: EVQLLESGGGLVQPGGSLRLSCAASGFTFKDYCMTWVRQAPGKGLEWVSAIVYSGGSTYYADSVKGRFTISRDNSKNTLYLQMNNLRAEDTAVYYCAKYTRASYFYDAMDVWGQGTTVTVSSASTKGPSVFPLAPCSRSTSESTAALGCLVKDYFPEPVTVSWNSGALTSGVHTFPAVLQSSGLYSLSSVVTVPSSSLGTKTYTCNVDHKPSNTKVDKRV[not shown - about 350 residues with a human IgG4 Fc] light: EIVLTQSPGTLSLSPGERATLSCRASQSIGRSFLAWYQQKPGQAPRLLIYDASTRAADIPARFSGSGSGTDFTLTISSLEPEDFAVYYCQQYYDWPPLSFGGGTKVEIKRTVAAPSVFIFPPSDEQLKSGTASVVCLLNNFYPREAKVQWKVDNALQSGNSQESVTEQDSKDSTYSLSSTLTLSKADYEKHKVYACEVTHQGLSSPVTKSFNRGEC	~0	60	~6600
1H9-hIgG4-df-hIL-2 (D20A/R38E) (other) heavy: EVQLLESGGGLVQPGGSLRLSCVGSGFNLKDYCMTWVRQAPGKGLEWVSAIVYSGGSTYYADSVKGRFTISRDNSKNTLYLQMNSLRAEDTAVYYCAKYTRGSYFYDAMDVWGQGTTVTVSSASTKGPSVFPLAPCSRSTSESTAALGCLVKDYFPEPVTVSWNSGALTSGVHTFPAVLQSSGLYSLSSVVTVPSSSLGTKTYTCNVDHKPSNTKVDKRV[not shown - about 350 residues with a human IgG4 Fc] light: EIVLTQSPGTLSLSPGERATLSCRASQSIGRSFLAWYQQKPGQAPRLLIYDASTRAADIPDRFSGSGSGTDFTLTINRLEPEDFAVYYCQQYYDWPPLTFGGGTKVEIKRTVAAPSVFIFPPSDEQLKSGTASVVCLLNNFYPREAKVQWKVDNALQSGNSQESVTEQDSKDSTYSLSSTLTLSKADYEKHKVYACEVTHQGLSSPVTKSFNRGEC	~0	90	~9770
2H7-hIgG4-df-hIL-2 (T3A/D20A/R38E/C125A) (other) heavy: EVQLLESGGGLVQPGGSLRLSCAASGFTFKDYCMTWVRQAPGKGLEWVSAIVYSGGSTYYADSVKGRFTISRDNSKNTLYLQMNNLRAEDTAVYYCAKYTRASYFYDAMDVWGQGTTVTVSSASTKGPSVFPLAPCSRSTSESTAALGCLVKDYFPEPVTVSWNSGALTSGVHTFPAVLQSSGLYSLSSVVTVPSSSLGTKTYTCNVDHKPSNTKVDKRV[not shown - human IgG4 Fc with S228P (EU numbers)]APASSSTKKTQLQLEHLLLALQMILNGINNYKNPKLTEMLTFKFYMPKKATELKHLQCLEEELKPLEEVLNLAQSKNFHLRPRDLISNINVIVLELKGSETTFMCEYADETATIVEFLNRWITFAQSIISTLT light: EIVLTQSPGTLSLSPGERATLSCRASQSIGKSFLAWYQQKPGQAPRLLIYDASTRAADIPARFSGSGSGTDFTLTISSLEPEDFAVYYCQQYYDWPPLSFGGGTKVEIKRTVAAPSVFIFPPSDEQLKSGTASVVCLLNNFYPREAKVQWKVDNALQSGNSQESVTEQDSKDSTYSLSSTLTLSKADYEKHKVYACEVTHQGLSSPVTKSFNRGEC	~1		> 10000
1H3-hIgG1-LAGA-df-hIL-2 (T3A/D20A/R38E/C125A) (other) heavy: EVQLVESGGGLVQPGRSLKLSCAVSGFTFSDYAMAWVRQAPKKGLEWVATISYDGSRTYYRDSVKGRFTISRDNAKITLYLQMDSLRSEDTATYYCARHGSGYFDYWGQGVMVTVSS[not shown - human IgG1 constant region with L235A G237A (EU numbers)]APASSSTKKTQLQLEHLLLALQMILNGINNYKNPKLTEMLTFKFYMPKKATELKHLQCLEEELKPLEEVLNLAQSKNFHLRPRDLISNINVIVLELKGSETTFMCEYADETATIVEFLNRWITFAQSIISTLT light: DTVLTQSPALAVSPGERVTISCRASESVRTGVHWYQQKPGQQPKLLIYGASNLESGVPARFSGSGSGTDFTLTIDPVEADDTATYFCQQSWNDPFTFGSGTKLEIKRTVAAPSVFIFPPSDEQLKSGTASVVCLLNNFYPREAKVQWKVDNALQSGNSQESVTEQDSKDSTYSLSSTLTLSKADYEKHKVYACEVTHQGLSSPVTKSFNRGEC	6460		
1H3-hIgG1-L6-hIL-2 (D20T) (other) heavy: EVQLVESGGGLVQPGRSLKLSCAVSGFTFSDYAMAWVRQAPKKGLEWVATISYDGSRTYYRDSVKGRFTISRDNAKITLYLQMDSLRSEDTATYYCARHGSGYFDYWGQGVMVTVSS[not shown - about 450 residues with a human IgG1 Fc and changes] light: DTVLTQSPALAVSPGERVTISCRASESVRTGVHWYQQKPGQQPKLLIYGASNLESGVPARFSGSGSGTDFTLTIDPVEADDTATYFCQQSWNDPFTFGSGTKLEIKRTVAAPSVFIFPPSDEQLKSGTASVVCLLNNFYPREAKVQWKVDNALQSGNSQESVTEQDSKDSTYSLSSTLTLSKADYEKHKVYACEVTHQGLSSPVTKSFNRGEC	~75		
1H3-hIgG1-L6-hIL-2 (T3A/F42A/Y45A/L72G/C125A) (other) heavy: EVQLVESGGGLVQPGRSLKLSCAVSGFTFSDYAMAWVRQAPKKGLEWVATISYDGSRTYYRDSVKGRFTISRDNAKITLYLQMDSLRSEDTATYYCARHGSGYFDYWGQGVMVTVSS[not shown - human IgG1 constant region]SGGGGSAPASSSTKKTQLQLEHLLLDLQMILNGINNYKNPKLTRMLTAKFAMPKKATELKHLQCLEEELKPLEEVLNGAQSKNFHLRPRDLISNINVIVLELKGSETTFMCEYADETATIVEFLNRWITFAQSIISTLT light: DTVLTQSPALAVSPGERVTISCRASESVRTGVHWYQQKPGQQPKLLIYGASNLESGVPARFSGSGSGTDFTLTIDPVEADDTATYFCQQSWNDPFTFGSGTKLEIKRTVAAPSVFIFPPSDEQLKSGTASVVCLLNNFYPREAKVQWKVDNALQSGNSQESVTEQDSKDSTYSLSSTLTLSKADYEKHKVYACEVTHQGLSSPVTKSFNRGEC	~2		
